These results are taken from article PMC7282669, “The hydrophobic effect characterises the thermodynamic signature of amyloid fibril growth” (PLoS Computational Biology, 2020).

This series concerns the molecule itself. Briefly: ITC; fibril elongation; monomer titrated into sonicated seed fibril suspension; VP-ITC; 10 mM HCl, 1 mM Na2SO4; monomer 70-300 μM; several temperatures.

B1: Human glucagon (peptide)
chain: not shown
notes: Monomer and sonicated seed fibrils, studied under two sets of solution conditions; source: a kind gift from Novo Nordisk
B1: the binding result is recorded as “binds”.
